Test results published in PubChem BioAssay (NCI).
Values joined by “and” are separate entries in the source; they are usually repeats but may differ in a detail not shown here. Identical values can stand only once.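 Interpolation was linear, between the two tested concentrations surrounding the appropriate level; five concentrations were tested over 48 hours in 96-well plates. GI50 marks 50% less growth. Definition used: TGI = concentration required for complete inhibition of growth.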

tested on: NCI-H322M lung; test: NCI anticancer screen, dose series, 48 h

SMILES	TGI	GI50
CN(C)C=C1C(=O)N(C)C(=O)N(C)C1=O	> 100 µM	
COc1ccccc1N=Nc1c(-c2ccccc2)nn(C(=O)CC(=O)Nc2ccccc2Cl)c1-c1ccccc1	> 100 µM	
O=C1/C(=C\c2ccc(Br)cc2)CN(C(=O)c2ccccc2F)C/C1=C\c1ccc(Br)cc1	38.3 µM	7 µM
Cc1nc(-c2nc(C)c(C(=O)/C=C/c3ccc(N(C)C)cc3)s2)sc1C(=O)/C=C/c1ccc(N(C)C)cc1	> 100 µM	
CN(O)C(=O)c1ccccc1	> 100 µM	
O=c1nc2sc3ccc4ccccc4c3n2nc1-c1ccccc1	> 100 µM	
O=C1/C(=C/c2ccc3c(c2)CCC3)Cc2cc3c(cc21)CCC3	> 100 µM	
CN1C(NN)=NS(=O)(=O)c2ccccc21	> 100 µM	
O=C1CCCn2c(nc3ccccc32)N1	> 100 µM	
O=C1NC(=O)C(C(=O)C(=O)Nc2cccc(C(F)(F)F)c2)C(=O)N1	> 100 µM	
C/C(=N\N(C)C)C(CN1CCCCC1)C(c1ccccc1)c1c(O)c2ccccc2oc1=O (stereo not given)	> 100 µM	
O=c1nc(Oc2c(F)c(F)c(F)c(F)c2F)ccn1C1OC(CO)C(O)C1O (stereo not given)	> 100 µM	
Cc1ccc(O)c(N=Nc2c(O)cc(S(=O)(=O)O)c3ccccc23)c1	> 100 µM	
O=[N+]([O-])C(=C1NCCN1)/C(Cl)=C(/Cl)N1CCOCC1	> 100 µM	
C=C(Br)CN(C)CC(=C)Br	> 100 µM	
CC1(C)OCC(C2CCC3(C)C4=CCC5C(C)(C)C(O)CCC5(C)C4CCC23C)CC(O)C1O (stereo not given)	31.2 µM	
O=c1c(O)c(O)c1=O.[NH2-].[NH2-].[NH2-].[NH2-].[NH2-].[Ru+5]	> 100 µM	> 100 µM
COC(=O)C1=C(C)NC(C)=C(C(=O)OC)C1c1ccc(NO)cc1	> 100 µM	
COc1ccc2c(c1)O[C@@H]1c3ccc(OC)cc3OC[C@H]21	> 100 µM	
COc1cc(Nc2cc(C)nc(N3CCN(c4ccnc5cc(Cl)ccc45)CC3)n2)cc(OC)c1	> 100 µM	0.141 µM
CN(C)CCCNC(=O)CCNC(=O)c1cc(NC(=O)c2cc(NC(=O)c3cc(NC(=O)CCCNC(=O)c4cc(NC(=O)c5cc(NC(=O)c6nccn6C)cn5C)cn4C)cn3C)cn2C)cn1C	> 100 µM	
CC#Cc1nc2ccccc2c(=O)[nH]1	24.1 µM	5.55 µM
COc1cc(C(=O)/C=C/c2c(-c3cccs3)nc3sc(C)cn23)cc(OC)c1OC	> 100 µM	6.72 µM
CNC(=O)CCC(NC(=O)OC(C)(C)C)C(=O)NC(Cc1ccc(NC(=O)CCCCC(C)=O)cc1)C(=O)NCC(=O)NC (stereo not given)	> 100 µM	

SMILES	TGI	GI50
CCOc1cc(NC(C)=O)ccc1C(=O)NN1C(=O)/C(=C/c2ccco2)N=C1c1ccccc1	> 100 µM	
Cn1cc(NC(=O)c2cc(NC(=O)c3cc(NC=O)cn3C)cn2C)cc1C(=O)NCCC(=N)N	> 100 µM	
CC[C@]12C=CCN3CC[C@]4(C(=C(C(=O)OC)C1)Nc1cc(OC)c(OC(C)=O)cc14)[C@@H]32	18.8 µM	1.3 µM
Ic1ccc2[nH]cc(SSc3c[nH]c4ccc(I)cc34)c2c1	12 µM	2.9 µM
O=C1NC(=NCCc2cccs2)S/C1=C\c1ccc2ncccc2c1	> 25 µM	14 µM
O=C(O)c1ccccc1C1CCCc2c1[nH]c1ccccc21 (stereo not given)	> 100 µM	
Cc1cc(OCc2n[nH]c(=S)n2/N=C/c2ccc(F)cc2)ccc1Cl	59.9 µM	16.8 µM
COC(=O)NC(Nc1ccc(Cl)cc1Cl)(C(F)(F)F)C(F)(F)F	> 100 µM	
C[C@]12CCC3c4ccc(O)cc4CC[C@H]3C1CC(=O)N(CCN1CCCC1)C2=O (stereo not given in full)	> 10 µM	
COc1ccc2c(c1)CC1Cc3cc(OC)c(OC)cc3CN1CC2 (stereo not given)	> 100 µM	
O=c1[nH]c(=O)n(C2OC(CO)C(N(O)Cc3ccc(F)cc3)C2O)cc1Br (stereo not given)	> 100 µM	
COC(=O)c1c2c(c[n+]([O-])c1C)C(=O)C=C(NCc1ccccc1)C2=O	0.506 µM	0.209 µM
Cn1cc(C2=C(Sc3ccccc3)C(=O)NC2=O)c2ccccc21	> 25 µM	> 25 µM
COc1ccc2c(c1OC)CN1CCc3cc4c(cc3C1C2)OCO4 (stereo not given)	> 100 µM	
Cc1ncc([N+](=O)[O-])n1CC(O)Cn1ccnc1[N+](=O)[O-] (stereo not given)	> 100 µM	
CC1=NC(C(=O)O)Cc2c1[nH]c1ccccc21 (stereo not given)	> 100 µM	
CC(C)(C)c1ccc(O)c(C[N+](C)(C)C)c1	> 100 µM	
CCOC(=O)N1C=NC23C(c4ccccc4)C(c4ccccc4)C12C(=O)N(C)C(=O)N3C (stereo not given)	> 100 µM	
Nc1nc[n+](Cc2ccccc2CCO)c2nc[nH]c12	> 100 µM	
CC(C)=CCC[C@@H](C)C1=C(O)C(c2c(I)c(=O)n(C)c(=O)n2C)=C(C)C(=O)C1=O	> 100 µM	
N#CCCC1(CCC#N)CCc2ccccc2C1=O	> 100 µM	
C=C1C(=O)OC2C1CC[C@H](C)C1(O)C(O)CC(=O)[C@@]21C (stereo not given in full)	96.8 µM	
CC(=O)Oc1ccc2c(c1OC(C)=O)CCC1C2=CC[C@]2(C)C(=O)CCC12 (stereo not given in full)	85.8 µM	
CC(C)(O)c1coc(S(=O)(=O)/N=C(\O)Nc2c3c(cc4c2CCC4)CCC3)c1	> 100 µM	> 100 µM

SMILES	TGI	GI50
COc1cccc2c1C(CO)N1C(C#N)C3CC(C(=O)O)C(C1C2)N3C (stereo not given)	5.35 µM	0.659 µM
COC(=O)[C@@H](Nc1ccccc1)[C@@]1(C(=O)OC)SC12c1ccccc1-c1ccccc12	> 100 µM	
CC(C)(Cl)C(Cl)CC/C(CBr)=C(\Cl)CCl (stereo not given)	29.4 µM	
Cc1cc(C)c(CNC(=O)c2cc(-c3ccc(CN4CCOCC4)cc3)cc3c2cnn3C2CCCC2)c(=O)[nH]1	52.3 µM	19.5 µM
C=C(C(=O)OC)[C@H]1CC/C(C)=C/CC[C@@](C)(O)C=CC[C@@]2(C)O[C@@H]2C1	79.6 µM	
CCN1C/C(=C\c2cc(OC)c(OC)c(OC)c2)C2=NN(c3ccccc3)C(c3cc(OC)c(OC)c(OC)c3)C2C1 (stereo not given)	23.8 µM	
CCOC(=O)[C@@H]1C2C(=C[C@H]3[C@H]1C(=O)N1CCCC[C@H]31)CCCN2C(=O)OCc1ccccc1 (stereo not given in full)	> 100 µM	
C=CCN(C(=O)OC(C)(C)C)C1=CC2C(C)=CN(S(=O)(=O)c3ccccc3)C2C(OCc2ccccc2)=C1 (stereo not given)	> 100 µM	
COc1cc(/C=C2\CC3C4CCC5=CC(=O)CC[C@]5(C)C4CC[C@]3(C)C2=O)ccc1OCCCn1ccnc1 (stereo not given in full)	3.54 µM	0.254 µM
COc1cc(C2c3cc4c(cc3OC(N3CCCCC3)C2C)OCO4)cc(OC)c1OC (stereo not given)	> 100 µM	
CC(C)(C)c1[nH]nc2c1C(c1cc3ccccc3[nH]c1=O)Nc1cc(C(=O)Nc3ccc(Cl)cc3)ccc1N2 (stereo not given)	9.84 µM	3.06 µM
COC(=O)[C@H](Cc1ccccc1)NC(=O)[C@H](Cc1ccccc1)NC(=O)CN1C(=O)[C@@H]2C3C=CC(C3)[C@@H]2C1=O	31.1 µM and 31.7 µM	
C/C(CC(=O)Nc1ccccc1[N+](=O)[O-])=N\NC(N)=O	> 100 µM	
COc1ccc2c(CCC(c3ccccc3)c3ccccc3)c3[n+](cc2c1OC)CCc1cc2c(cc1-3)OCO2	12 µM	2.78 µM
S=C(Nc1c2c(nc3ccccc13)CCCC2)Nc1c2c(nc3ccccc13)CCCC2	> 100 µM	
C[C@]12CCc3nonc3C1CC[C@@H]1C2CC[C@]2(C)C(=O)CCC12 (stereo not given in full)	> 100 µM	
COc1cc2c(cc1OC)C(=O)/C(=C/c1ccccc1)CC2	> 100 µM	
CC(=O)Nc1ccc(-c2csc(Nc3ccc(-c4csc(-c5ccccc5)n4)cc3)n2)cc1	18.3 µM	2.16 µM
COc1cc(-n2cncc2-c2ccc3ccccc3c2)cc(OC)c1OC	> 100 µM	3.7 µM
COc1ccc(Nc2nc3cc(C(F)(F)F)ccc3nc2C(=O)O)cc1OC	> 100 µM	
c1ccc(N=C2SC(c3ccccc3)(c3ccccc3)c3ccccc32)cc1	> 100 µM	
COc1cc2c(cc1OC)C1C(O)C(OC)C(Br)C3(Br)CCN(C2)C13 (stereo not given)	> 100 µM	
CN1CC[C@]2(C)c3c(O)cccc3CC3CCCC1C32C (stereo not given in full)	> 100 µM	
CC(=O)Nc1cc(C(=O)Nc2cc(C(=O)Nc3cc(C(=O)Nc4cc(C(=O)Nc5cc(C(=O)NCCC(=O)NCCCN(C)C)n(C)c5)n(C)c4)n(C)c3)n(C)c2)n(C)c1	> 100 µM	

SMILES	TGI	GI50
COc1cc(/C=N/N=C(\N)NO)cc(Cl)c1O	> 100 µM	
Nc1nc2c(c3cnccc13)C(c1cccc(Br)c1)Cc1cnccc1-2 (stereo not given)	19.1 µM	1.66 µM
CC1(C)CC(=O)C(Cc2ccccc2)(Cc2ccccc2)C(=O)C1	> 100 µM	
Cn1c(=O)c2ccccc2c2nc3ccccc3nc21	> 100 µM	
O=C(Nc1ccn(C2CC(O)C(CO)O2)c(=O)n1)c1ccccc1 (stereo not given)	> 100 µM	
COc1nc(-c2cn(S(=O)(=O)c3ccc(C)cc3)c3ccc(Br)cc23)cc(C(F)(F)F)c1C#N	> 100 µM	
Cc1cc2c(c(C(N)=O)c1C)-c1cccc(Cl)c1C2=O	> 100 µM	
O=C(O)c1ccccc1SCc1cccc2c(=O)c3ccc(Cl)cc3oc12	> 50 µM	
C=C(C)/C=C/C(O)[C@](C)(O)[C@H]1[C@H](O)C[C@@]2(C)[C@@H]3CCc4c(cc(OC5OC(CO)C(O)C(O)C5O)c(O)c4C)C3(C)C(=O)C[C@]12C (stereo not given in full)	> 100 µM	
C=CCNC(=O)/C=C\C(=O)O	> 100 µM	
Cn1nc(-c2cccs2)cc1/N=C(\N)C(C)(C#N)Cc1ccccc1 (stereo not given)	95.6 µM	30.2 µM
COc1ccc(C(OCC2OC(n3cnc4c(=O)n(Cc5ccccc5[N+](=O)[O-])nnc43)C(O)C2O)(c2ccccc2)c2ccc(OC)cc2)cc1 (stereo not given)	> 79.9 µM	
CCOC(=O)c1cc(NC(=O)c2cc(NC(=O)c3cc(NC(=O)c4c(-c5ccccc5)noc4C)cn3C)cn2C)cn1C	> 100 µM	> 100 µM
COC1C(CO)OC(n2c3ccccc3c3c4c(c5c6ccccc6[nH]c5c32)C(=O)NC4=O)C(OC(=O)C(N)CCCCN)C1O (stereo not given)	0.593 µM	0.0493 µM
O=C(O)/C=N/NC(=S)NC1CCCCC1	> 100 µM	
CCCCC/C=C\C=C1\C(=O)C=C[C@@H]1C/C=C\CCCC(=O)O	14.6 µM	
COc1c(CC(=O)c2ccccc2)c2ccccc2n1C(C)=O	> 100 µM	
CCCCCCCCCCCCCCCCCCOP(=O)([O-])OC1CC[N+](C)(C)CC1	> 10 µM and 28.9 µM	> 10 µM
O=c1[nH]c2cc(C(F)(F)F)ccc2nc1CBr	30.4 µM	
Cc1ccc(S(=O)(=O)NC(CCC(=O)NN)C(=O)NN)cc1 (stereo not given)	> 100 µM	
O=C(C(=NC12CC3CC(CC(C3)C1)C2)NNc1ccc([N+](=O)[O-])cc1[N+](=O)[O-])C(Br)C(=O)c1ccccc1 (stereo not given)	> 10 µM	
Cc1cccc(NC(=O)c2sc3nc4c(cc3c2N)CCCC4)c1	> 100 µM	> 100 µM
NC(N)=NS(=O)(=O)c1ccc(NC(=O)c2cccc3c(NNc4ccc(C(=O)O)cc4)c4ccccc4nc23)cc1	> 100 µM	
